Measured values from the supplement of paper PMC7125110.
± gives the standard error. Variants at the background level are over-represented here.

B1: glmS ribozyme (parent)
chain: AUAAAAGCGCCAGAACUACAGAAAUGUAGUUGACGAGGAGGAGGUUUAUCGAAUUUUCGGCGGAUGCCUCCAAA

What was measured:
Conditions in all cases: with glucosamine-6-phosphate
glucosamine-6-phosphate [1] = variants of: B1; test: self-cleavage kobs at 640 uM GlcN6P; higher = faster cleavage; RNA array
Outline: (§1)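 kcat and KM were obtained from weighted Michaelis–Menten fits across concentrations of kobs values. Those came from one- or two-exponential decay fits to per-tile medians normalised to baseline and to non-cleaving reference variants. The variants were barcoded ribozymes transcribed in situ by E. coli RNA polymerase on sequenced MiSeq chips and tracked through a hybridised Cy3 probe at 37 °C, with 40 μM to 10 mM glucosamine-6-phosphate in HEPES/KCl/Mg(OAc)2 buffer flowed in.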

glucosamine-6-phosphate [2] = variants of: B1; test: self-cleavage kobs at 160 uM GlcN6P; higher = faster cleavage; RNA array
Outline: as §1

glucosamine-6-phosphate [3] = variants of: B1; test: self-cleavage kobs at 2500 uM GlcN6P; higher = faster cleavage; RNA array
Outline: as §1

glucosamine-6-phosphate [4] = variants of: B1; test: self-cleavage kobs at 10000 uM GlcN6P; higher = faster cleavage; RNA array
Outline: as §1

Row | Variant | self-cleavage kobs at 640 uM GlcN6P (glucosamine-6-phosphate [1]) [s⁻¹] | self-cleavage kobs at 160 uM GlcN6P (glucosamine-6-phosphate [2]) [s⁻¹] | self-cleavage kobs at 2500 uM GlcN6P (glucosamine-6-phosphate [3]) [s⁻¹] | self-cleavage kobs at 10000 uM GlcN6P (glucosamine-6-phosphate [4]) [s⁻¹]
1 | AUAAAAGCGCAAGAACUACAGAAAUGUAAUUGAAGAGGAGGAGGUUUAUCGAAUUUCCGGCGGAUGCCUCCAAA [C11A G29A C34A U57C] | < 1e-05 | < 1e-05 |  | 
2 | AUAAAAGCGGCAGAACUACAGAAAUGUAGUUGACGAGGAGGAGCUUUAUCGAAUUUUCGGCGGAUGCCUCCAAA [C10G G44C] | < 1e-05 |  | < 1e-05 | 
3 | AUAAAAGCGGCAGAAUUACAGAAAUGUAGUUGUCGAGGAGGAGGUUUAUCGAAUUUUCGGCGGAUGCCUCCAAA [C10G C16U A33U] | < 1e-05 |  |  | 
4 | AUAAAAGCGUCUGAGCUACAGAAAUGUAGUUGCCGAGGAGGAGGUUUAUCGAAUUUGCGGCGGAUGCCUCCAAA [C10U A12U A15G A33C U57G] | < 1e-05 | < 1e-05 |  | < 1e-05
5 | AUAAAAGCGUUGGAACUACAGAAAUGUAGUUGCCGAGGAUGAGGUUUAUCGAAUUUUCUGCGGAUACCUCCAAA [C10U C11U A12G A33C G40U G59U G66A] | < 1e-05 |  |  | 
6 | AUAAAAGCGACAGAACUACAGAAAUGUAGUUGACGAUGUGGAGUUUUAUCGAAUUUUCUGCGGAUGCCUGCAAA [C10A G37U A39U G44U G59U C70G] | < 1e-05 |  | < 1e-05 | 
7 | AUAAAAGCGGCAGAACUACAGAAAUGUAGUUGACGAGGAGUAGGUUUAUCGAAUUUUCAGCGGAUGCCUCCAAA [C10G G41U G59A] | < 1e-05 | < 1e-05 | < 1e-05 | 
8 | AUAAAAGCGGCAGAACUACAGAAAUGUAGUUGCCGAGGAGGAGGUUUAUCGAAUUUUCCGCGGAUGCCUCCAAA [C10G A33C G59C] | < 1e-05 |  |  | 
9 | AUAAAAGCGGCAGAACUACAGAAAUGUAGUUGACGAGGAGGCGGUUUAUCGAAUUUUCGGCGGAUGCCUCUAAA [C10G A42C C71U] | < 1e-05 |  | < 1e-05 | 
10 | AUAAAAGCUCCAGAACUACAGAAAUGUAGCUGUCGAGGAGGAGGUUUAUCGAAUUUUCGGCGGAUGCCUCCAAA [G9U U30C A33U] | < 1e-05 |  |  | 
11 | AUAAAAGCGUCAGAACUACAGAAAUGUAGUAGACGAGGAGGACGUUUAUGGAAUUUUCGGCGGAUGCCUCCAAA [C10U U31A G43C C50G] | < 1e-05 |  |  | 
12 | AUAAAAGCGUCAGAACUACAGAAAUGUAGUUGACGAGGAGCAGGUUUAUCGAAUUUUCGGCGGAGGCCUCCAAA [C10U G41C U65G] | < 1e-05 |  | < 1e-05 | 
13 | AUAAAAGCGGCAGAACUACAGAAAUGUACUUGACGAGGAGGAGGUUUAUCGCAUUUUCGGCGGAUGCCUCCAAA [C10G G29C A52C] | < 1e-05 |  |  | 
14 | AUAAAAGCGUCAGAACUACAGAAAUGUAGUUGGCGAGGAGGAGAUUUAUCGAAUUUUCGGCGGAUGCCUCCAAA [C10U A33G G44A] | < 1e-05 | < 1e-05 | < 1e-05 | 
15 | AUAAAAGCGUCAUAACUACAGAAAUGUAGUUGACGAGGAGGAGGUUUUUCGAAUUUUCGGCGGAUGCCUCCAAA [C10U G13U A48U] | < 1e-05 |  | < 1e-05 | 
16 | AUAAAAGCGCAAGAACUACAGAAAUGUAGCUGACGAGGAGGAGGUUUAUCGACUUUUCGGCGGAUGCCUCUAAA [C11A U30C A53C C71U] | < 1e-05 |  |  | 
17 | AUAAAAGCGACAGAACUACAGAAAUGUAGUUGACGAGGAAGAGGUUUAUCGAAUUUUCGACGGACGCCUCCAAA [C10A G40A G60A U65C] | < 1e-05 | < 1e-05 | < 1e-05 | 
18 | AUAAAAGCUCCAGAACUACAGAAAUGUAGUGGACGCGGAGGAGGUUUAUCGAAUUUUCGGCGGAUGCCUCCAAA [G9U U31G A36C] | < 1e-05 | < 1e-05 |  | < 1e-05
19 | AUAAAAGCGGCAGAACUACAGAAAUGUAGUUGACGAGGAGGAGAUUUAUUGAACUUUCGGCAGAUGCCUCCAAA [C10G G44A C50U U54C G62A] | < 1e-05 | < 1e-05 |  | 

Row | Variant | self-cleavage kobs at 640 uM GlcN6P (glucosamine-6-phosphate [1]) [s⁻¹] | self-cleavage kobs at 160 uM GlcN6P (glucosamine-6-phosphate [2]) [s⁻¹] | self-cleavage kobs at 2500 uM GlcN6P (glucosamine-6-phosphate [3]) [s⁻¹] | self-cleavage kobs at 10000 uM GlcN6P (glucosamine-6-phosphate [4]) [s⁻¹]
20 | AUAAAAGCGGCAGAGCUACAGAAAUGUAGUUGACGAGGAGGAGGUUUAUCGAAUGUUCGGCGGAUGCCUCCAAA [C10G A15G U55G] | < 1e-05 |  |  | 
21 | AUAAAAGCGCAAGAACUACAGAAAUGUAGUUGACGAGGAGGAUGUUUAUCGAAUAUUCGGCGGAUGCCUCCAAA [C11A G43U U55A] | < 1e-05 |  |  | 
22 | AUAAAAGCGGCAGAACUACAGAAAUGUAGCUGACGAGGAGGAGGUUUAUCGAAUUUUCGGCGGAUGCGUCCAAA [C10G U30C C68G] | 9.65e-05 ± 3.5e-05 |  |  | 
23 | AUAAAAGCGACAGAACUACAGAAAUGUAGUUGACGAGGGGGAGGUUUAUCUAAUUUUCGGCGGAUGCCUCCAAA [C10A A39G G51U] | < 1e-05 |  | < 1e-05 | 
24 | AUAAAAGCGACGGAACUACAGAAAUGUAGUUGUCGAGGAGGAGGUUUAUCGAAUUUUCGGCGGAUGCCUCCAAA [C10A A12G A33U] | < 1e-05 | < 1e-05 | < 1e-05 | 
25 | AUAAAAGCGUCAGAACUACAGAAAUGUAGUUGACGAGUAGGAGGUUUAUCGAAUUUGCGGGGGAUUCCUCCAAA [C10U G38U U57G C61G G66U] | 0.000307 ± 9.3e-05 |  |  | 
26 | AUAAAAGCUCCAGAACUACAGAAAUGUAGGUUACGAGGAGGAGGUUUAUCGAAUAUUCGGCGGAUGGCUCCAAA [G9U U30G G32U U55A C67G] | < 1e-05 |  | < 1e-05 | < 1e-05
27 | AUAAAAGCGACAUAGCUACAGAAAUGUAGUUGACGAGGAUGAGGUGUAUCGAAUUUUCGGCGGAUGCCUCCAAA [C10A G13U A15G G40U U46G] | < 1e-05 | < 1e-05 | < 1e-05 | 
28 | AUAAAAGCUCCAGAACUACAGAAAUGUAGCUGACGUGGAGGAGGUUUAUCGAAUUUUCGGCGGAUGCCUCCAAA [G9U U30C A36U] | < 1e-05 |  | < 1e-05 | 
29 | AUAAAAGCGGCAGAACUACAGAAAUGUAGUUUACGAGGGGGAGGUUUAUCGAAUUUUCCGCGGUUGCCUACAAA [C10G G32U A39G G59C A64U C70A] | < 1e-05 |  | < 1e-05 | 
30 | AUAAAAGCGCAAGAACUACAGAAAUGUAGUUGACGAGGAGGAUGUUUCUCGAAUUUUCGGCGGAUGCCUCAAAA [C11A G43U A48C C71A] | < 1e-05 |  | < 1e-05 | 
31 | AUAAAAGCGCAAGGACUACAGAAAUGUAGUUGACGAGGAGGAGGUUUAUCGAAUUUUCGGCGGCUGCCUCCAAA [C11A A14G A64C] | < 1e-05 |  |  | 
32 | AUAAAAGCGGAAGAAAUACAGAAAUGUAGUUGACGAGGAGGAGGUUUAUCGAAUUUUGGGCGGAUGCCUCGAAA [C10G C11A C16A C58G C71G] | 0.00176 ± 0.00062 |  | 0.000241 ± 0.0001 | 
33 | AUAAAAGCGGCAGAACUACAGAAAUGUAGUUGACGAGGAGGAGUUUUAUUGAAUUUUCGGUGGAUGCCUCCAAA [C10G G44U C50U C61U] | < 1e-05 | < 1e-05 |  | 
34 | AUAAAAGCGGCAGAACUACAGAAAUGUAGUUAACGAGGAGGAGGCUUUUCGAAUUUUCGGCGGAUGCCCCCAAA [C10G G32A U45C A48U U69C] | < 1e-05 |  |  | < 1e-05
35 | AUAAAAGCGUCAGAACUACAGAAAUGUAGUUGCCGAGGAGGAGGUCUAUCGAAUUUUCGGCGGAUGCCUCCAAA [C10U A33C U46C] | < 1e-05 | < 1e-05 | < 1e-05 | 
36 | AUAAAAGCGUCAGAACUACAGAAAUGUAGUUGACGAGGAGAAGGUUUAUCGAAUUUUCGGCGGAGGCCUCCAAA [C10U G41A U65G] | < 1e-05 | < 1e-05 | < 1e-05 | 
37 | AUAAAAGCGUCAGAACUACAGAAAUGUAGUUGACGAGGCGGAGGUCUAUCGAAUUUUCGGCGGAUGCCUCCAAA [C10U A39C U46C] | < 1e-05 |  |  | < 1e-05
38 | AUAAAAGCGAAAGCACUACAGAAAUGUAGUUGACGAGGAGGAGGUUUAUCGAAUUUUCGGGGGAUGCCUCCAAA [C10A C11A A14C C61G] | < 1e-05 |  |  | < 1e-05
